Reference: the supplement of paper PMC4604168 (melanoma cell lines)
The list shows a part of the results. Repeats are few or missing, and single values can be far off.

Tests used:
Assay in all cases: cell count relative to DMSO control; melanoma cells; higher = more viable cells
Conditions in all cases: library dose: standard library concentration; 72 h
A101D = tested on: A101D
A2058 = tested on: A2058
A375 = tested on: A375
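Further: cells treated in 1,536-well plates, then fixed and DAPI-stained, with nuclei counted from automated high-throughput microscope images.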

O=C(/C=C/c1cccnc1)NCCCCC1CCN(C(=O)c2ccccc2)CC1 + CS(=O)(=O)c1ccc(C(=O)Nc2ccc(Cl)c(-c3ccccn3)c2)c(Cl)c1 [vismodegib] (first compound 0.05 µM, partner dose 5 µM)
cell count (A101D): 88.9% | cell count (A2058): 95.8% | cell count (A375): 114%

CC1(C)CCC(c2ccc(Cl)cc2)=C(CN2CCN(c3ccc(C(=O)NS(=O)(=O)c4ccc(N[C@H](CCN5CCOCC5)CSc5ccccc5)c(S(=O)(=O)C(F)(F)F)c4)cc3)CC2)C1 + O=C(O)c1ccc(-c2c[nH]c3ncc(-c4ccccc4)cc23)cc1C1CCCC1 [GSK650394] (first compound 2 µM, partner dose 0.8 µM)
cell count (A101D): 34.2% | cell count (A2058): 77.5% | cell count (A375): 64.6%

O=C(/C=C/c1cccnc1)NCCCCC1CCN(C(=O)c2ccccc2)CC1 + O=C(Nc1cccc(Cl)c1)Nc1ncc(CCNc2ncnc3ccsc23)s1 [SNS314] (first compound 0.05 µM, partner dose 0.004 µM)
cell count (A101D): 78.6% | cell count (A2058): 94% | cell count (A375): 112%

O=C(/C=C/c1cccnc1)NCCCCC1CCN(C(=O)c2ccccc2)CC1 + Nc1cccc2c1CN(C1CCC(=O)NC1=O)C2=O [lenalidomide] (first compound 0.05 µM, partner dose 5 µM)
cell count (A101D): 96.2% | cell count (A2058): 93.5% | cell count (A375): 130%

Cc1ccc(Nc2nccc(N(C)c3ccc4c(C)n(C)nc4c3)n2)cc1S(N)(=O)=O [Pazopanib] + C[C@]1(c2nc3c(C(N)=O)cccc3[nH]2)CCCN1 [Veliparib] (first compound 2 µM, partner dose 7 µM)
cell count (A101D): 63.8% | cell count (A2058): 77.6% | cell count (A375): 75.2%

Cc1ccc(Nc2nccc(N(C)c3ccc4c(C)n(C)nc4c3)n2)cc1S(N)(=O)=O [Pazopanib] + Cc1nc(Nc2ncc(C(=O)Nc3c(C)cccc3Cl)s2)cc(N2CCN(CCO)CC2)n1 [dasatanib] (first compound 2 µM, partner dose 0.02 µM)
cell count (A101D): 64.7% | cell count (A2058): 58.3% | cell count (A375): 69.1%

O=C(/C=C/c1cccnc1)NCCCCC1CCN(C(=O)c2ccccc2)CC1 + Cc1nc(Nc2ncc(C(=O)Nc3c(C)cccc3Cl)s2)cc(N2CCN(CCO)CC2)n1 [dasatanib] (first compound 0.05 µM, partner dose 0.02 µM)
cell count (A101D): 86.3% | cell count (A2058): 75.4% | cell count (A375): 70.6%

Cc1ccc(Nc2nccc(N(C)c3ccc4c(C)n(C)nc4c3)n2)cc1S(N)(=O)=O [Pazopanib] + CNC(=O)c1cc(Oc2ccc(NC(=O)Nc3ccc(Cl)c(C(F)(F)F)c3)cc2)ccn1 [sorafenib] (first compound 2 µM, partner dose 2 µM)
cell count (A101D): 94.7% | cell count (A2058): 100% | cell count (A375): 121%

CC1(C)CCC(c2ccc(Cl)cc2)=C(CN2CCN(c3ccc(C(=O)NS(=O)(=O)c4ccc(N[C@H](CCN5CCOCC5)CSc5ccccc5)c(S(=O)(=O)C(F)(F)F)c4)cc3)CC2)C1 + Cn1c(=O)n(-c2ccc(C(C)(C)C#N)cc2)c2c3cc(-c4cnc5ccccc5c4)ccc3ncc21 [NVP-BEZ235] (first compound 2 µM, partner dose 0.02 µM)
cell count (A101D): 28.2% | cell count (A2058): 64.1% | cell count (A375): 49.4%

CC1(C)CCC(c2ccc(Cl)cc2)=C(CN2CCN(c3ccc(C(=O)NS(=O)(=O)c4ccc(N[C@H](CCN5CCOCC5)CSc5ccccc5)c(S(=O)(=O)C(F)(F)F)c4)cc3)CC2)C1 + Cc1cc(N2CCOCC2)cc2[nH]c(-c3c(NC[C@@H](O)c4cccc(Cl)c4)cc[nH]c3=O)nc12 [BMS536924] (first compound 2 µM, partner dose 1 µM)
cell count (A101D): 43.1% | cell count (A2058): 77.6% | cell count (A375): 76.6%

CC1(C)CCC(c2ccc(Cl)cc2)=C(CN2CCN(c3ccc(C(=O)NS(=O)(=O)c4ccc(N[C@H](CCN5CCOCC5)CSc5ccccc5)c(S(=O)(=O)C(F)(F)F)c4)cc3)CC2)C1 + Nc1nc(F)nc2c1ncn2[C@@H]1O[C@H](CO)[C@@H](O)[C@@H]1O [fludarabine] (first compound 2 µM, partner dose 1 µM)
cell count (A101D): 43.3% | cell count (A2058): 85.8% | cell count (A375): 28.2%

O=C(/C=C/c1cccnc1)NCCCCC1CCN(C(=O)c2ccccc2)CC1 + CS(=O)(=O)CCNCc1ccc(-c2ccc3ncnc(Nc4ccc(OCc5cccc(F)c5)c(Cl)c4)c3c2)o1 [lapatinib] (first compound 0.05 µM, partner dose 4 µM)
cell count (A101D): 96% | cell count (A2058): 68.8% | cell count (A375): 132%
